Assay results reported in PubChem BioAssay AID485364 (National Center for Advancing Translational Sciences (NCATS), 2010).
Among all 360,000 compounds or so, about 11,000 (3.1%) were called active. The inconclusive results got no clear call from the source; some entries with a clear call stand among them for comparison. Calls come from the whole dose curve; as a rule, active = well fitted inhibition curve with a large enough effect; inconclusive = small, poorly fitted or top-dose-only effect; inactive = no such curve, though single readings can be large or run the other way. No potency is given beside an inconclusive call; the fits are too rough.

Target: Schistosoma mansoni thioredoxin glutathione reductase (TGR) (UniProt Q962Y6)
Test: qHTS Assay for the Inhibitors of Schistosoma Mansoni Peroxiredoxins; note: nearly all actives have a fitted effect of over 60% in size
Conditions: purified TGR, DTNB reduction, TNB absorbance 405 nm; activity change, negative = inhibition: at 114 µM (top of the series) unless noted
In short: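 Kinetic colorimetric format: TGR-catalysed, NADPH-driven DTNB reduction monitored via TNB absorbance. Enzyme dispensed at 20 nM; compound exposure 15 min at room temperature before reaction start.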
% is set by controls: 0 for no effect and ±100 for the full control effect; potency is the fitted concentration of half-maximal effect; tags give direction and shape of the fitted curve.

SMILES	Potency	activity change, negative = inhibition
CCC(=O)Nc1ccc2c(c1)OCCO2	inactive	–
O=C(NCC(c1cccs1)N1CCOCC1)c1ccccc1NS(=O)(=O)c1cccc([N+](=O)[O-])c1 (stereo not drawn)	inactive	–
CS(=O)(=O)c1ccc(C(=O)Nc2ccc(N3CCCC3)cc2)c(Cl)c1	inactive	–
COCCN(C(=O)CSc1nnc(-c2ccco2)n1C)c1c(N)n(CC(C)C)c(=O)[nH]c1=O	inconclusive [inhibitor, partial curve]	–
COc1ccc(OC)c(S(=O)(=O)Nc2cc3c(cc2N2CCCC2)n(C)c(=O)c(=O)n3C)c1	active: 31.6 µM	–
O=C(c1ccc(F)cc1)C(CN1CCOCC1)c1ccccc1 (stereo not drawn)	inactive	–
Cn1c(C(=O)O)c(CC(=O)N2CCN(Cc3ccccc3)CC2)c2ccccc21	inconclusive [inhibitor, partial curve]	–
Cc1ccc(S(=O)(=O)N2CC3CC(C2)c2cccc(=O)n2C3)cc1 (stereo not drawn)	inactive	–
Cc1c(C(=O)NCc2ccc(Cl)cc2)sc2nc3n(c(=O)c12)CCCC3	inconclusive [inhibitor, partial curve]	–
COc1ccc(-c2cc(C(F)(F)F)nc(SCC(=O)NCCN3CCOCC3)n2)cc1OC	inconclusive [inhibitor, single point]	–
Cc1[nH]c(C)c2c(=O)[nH]ncc12	inconclusive [inhibitor, partial curve]	–
O=C(/C=C/c1ccco1)Nc1ccc(S(=O)(=O)N2CCOCC2)cc1	inconclusive [inhibitor, full curve]	–
Cc1ccc(CS(=O)(=O)CCC(=O)NC2CC2)cc1	inconclusive [inhibitor, full curve]	–
COc1ccc(NC(=O)COC(=O)[C@@H](NC(=O)c2c(F)cccc2F)C(C)C)cc1	inactive	–
COc1cccc(C(=O)NCCS(=O)(=O)NCc2ccco2)c1	inconclusive [inhibitor, partial curve]	–
O=C1CC(N2CCN(Cc3ccccc3)CC2)C(=O)N1CCc1ccccc1 (stereo not drawn)	inconclusive [inhibitor, single point]	–
Cc1ccc(CN2CCNC(=O)C2CC(=O)NC2CCCCCC2)cc1 (stereo not drawn)	inconclusive [inhibitor, partial curve]	–
CC(=O)Nc1ccc(NC(=S)NC(=O)/C=C/c2ccco2)cc1	active: 17.8 µM	–
COC(=O)c1ccccc1NC(=O)c1noc2c1CSc1ccccc1-2	active: 3.55 µM	–
O=C(COc1cccc(NC(=O)c2ccco2)c1)c1ccc(F)cc1	inactive	–
O=S(=O)(Cc1ccccc1)N1CCNCC1	inactive	–
CCOC(=O)c1cccc(NC(=O)CS(=O)(=O)Cc2nc(-c3cccc(OC)c3)oc2C)c1	inconclusive [inhibitor, partial curve]	–
Cc1cc(C)cc(C(=O)N2CC(=O)Nc3ccc(C)cc3C2c2ccccc2)c1 (stereo not drawn)	inactive	–
Cc1c(Cl)cccc1N(CC(=O)NC(C)c1ccccc1)S(C)(=O)=O (stereo not drawn)	inconclusive [inhibitor, partial curve, poor fit]	–
COc1ccc(NC(=O)CCS(=O)(=O)c2cc3c(cc2C)NC(=O)CO3)cc1	inconclusive [inhibitor, full curve]	–

SMILES	Potency	activity change, negative = inhibition
CC(=O)OCC(=O)Nc1cc(S(=O)(=O)N2CCCCCC2)ccc1Cl	inactive	–
CC(Oc1cccc(Cl)c1)C(=O)Nc1ccc(S(=O)(=O)N(C)C2CCN(C)CC2)cc1 (stereo not drawn)	inactive	–
COc1ccccc1-c1cc(C(F)(F)F)nc(S(=O)(=O)CCCC(=O)Nc2cccnc2Cl)n1	inconclusive [inhibitor, single point]	–
CC(c1nccs1)N(C)c1nc2nonc2nc1N(C)C (stereo not drawn)	inconclusive [inhibitor, single point]	–
CC[C@H](C)/C=C(C)/C=C/C1=CC2=CC(=O)[C@]3(C)OC(=O)[C@@H](C(C)=O)[C@@H]3C2=CO1	active: 14.1 µM	–
Cc1onc(-c2cccc(Cl)c2Cl)c1C(=O)O/N=C(\N)c1ccc([N+](=O)[O-])o1	inconclusive [inhibitor, partial curve]	–
COC(=O)C(C(C)=O)C1=C/C(=N\S(=O)(=O)c2ccc(C)cc2)c2ccccc2C1=O (stereo not drawn)	active: 28.2 µM	–
S=C1NCN(Cc2cccnc2)CN1c1cccc2ccccc12	inactive	–
Cc1ccc(OCC(=O)c2cc(C)n(-c3cc(C)on3)c2C)c([N+](=O)[O-])n1	inconclusive [inhibitor, partial curve]	–
O=C(Nc1ccccc1C(=O)N1CCCCC1)c1cc(F)c(F)cc1Cl	inactive	–
COc1ccc(NS(=O)(=O)c2cccc(N/C(=N\S(=O)(=O)c3ccccc3)c3ccc(F)cc3)c2)cc1	inactive	–
COc1ccc2c(c1)C1C=CCC1C(c1cc3c(cc1Br)OCO3)N2 (stereo not drawn)	inconclusive [inhibitor, full curve]	–
C1CCN(Cc2nnnn2CC2CCCO2)CC1 (stereo not drawn)	inconclusive [inhibitor, single point]	–
Cc1ccc(NC(=O)CN(Cc2ccco2)Cc2ccccc2O)cc1C	inactive	–
Cc1nc(N)nc(Nc2ccc(Cl)cc2)c1Br	inactive	–
Cc1ccc(CNC(=O)CSc2ccc(-c3ccco3)nn2)cc1	inconclusive [inhibitor, partial curve]	–
O=C1OC(c2ccccc2)=C/C1=C/N1CCCCC1	inconclusive [inhibitor, full curve]	–
CCCNC(=O)NC(=O)COC(=O)c1ccc(OC)c(S(=O)(=O)N2CCCc3ccccc32)c1	–	inactive: 38.5% [at 11.4 µM]
COc1ccc(N2CCN(C(=O)CSc3nnc4c(C)cc5cc(C)ccc5n34)CC2)cc1	inactive	–
CC1C(=O)Nc2ccc(S(=O)(=O)N3CCCCCC3)cc21 (stereo not drawn)	inconclusive [inhibitor, partial curve]	–
COC(=O)c1cccc(NC(=S)Nc2cccc(Cl)c2Cl)c1	active: 44.7 µM	–
COc1ccccc1S(=O)(=O)Cc1ccc(C(=O)NCc2cccs2)o1	inconclusive [inhibitor, full curve, poor fit]	–
CCOc1ccc(NC(=O)Cn2c(=O)n(CCc3ccccc3)c(=O)c3c4c(sc32)CCCC4)cc1	inactive	–
CN(Cc1ccccc1)c1nc2c(c(=O)[nH]c(=O)n2C)n1CCOc1ccccc1	inactive	–
O=C(/C=C/c1c(F)cccc1Cl)c1ccc(F)cc1	inconclusive [inhibitor, partial curve, poor fit]	–

SMILES	Potency	activity change, negative = inhibition
COc1ccc(-c2cc3ccccc3n2CC(O)Cn2nc(C)cc2C)cc1 (stereo not drawn)	inactive	–
CC(C)OC(=O)CC(=O)c1sc2nc3c(cc2c1N)CN(C)CC3	inconclusive [inhibitor, full curve]	–
CC(=O)C(Cc1ccccc1)NC(=O)CCl (stereo not drawn)	inconclusive [inhibitor, partial curve]	–
C=CCn1c(-c2ccc(OC)c(OC)c2)cs/c1=N\c1ccccn1	inconclusive [inhibitor, partial curve]	–
Cc1ccc(C(=O)NC(=C(Cl)Cl)S(=O)(=O)c2ccc(C)cc2)cc1	active: 17.8 µM	–
Cc1cc(NS(=O)(=O)c2ccc(NC(=O)CSc3nc4ncc(Br)cc4[nH]3)cc2)nc(C)n1	inconclusive [inhibitor, partial curve]	–
Cc1ccc2nc(C)cc(Nc3ccc4c(c3)OCCO4)c2c1	inactive	–
O=C(CSc1nnnn1-c1ccc(F)cc1)NC1CCCCC1	inconclusive [inhibitor, single point]	–
CC1CN(C(=O)CCC(=O)NCCCN2C(C)CCCC2C)c2ccccc2O1 (stereo not drawn)	inconclusive [inhibitor, full curve, poor fit]	–
CC(=O)Nc1ccc(NC(=O)CC2(CC(=O)N3CCOCC3)CCCC2)cc1	inactive	–
COc1cc2cc(C(=O)NCCc3ccccc3)[nH]c2cc1OC	active: 89.1 µM	–
COc1cccc(/C=N/NC(=O)c2oc3nc(-c4ccccc4)cc(-c4ccco4)c3c2N)c1	inconclusive [inhibitor, partial curve]	–
Cc1ccc(NC(=O)Nc2nnc(-c3ccncc3)s2)cc1	inconclusive [inhibitor, full curve]	–
O=C(CCS(=O)(=O)Cc1ccccc1)N1CCN(c2ccc([N+](=O)[O-])cc2)CC1	active: 25.1 µM	–
CN1c2ccc(Cl)cc2-c2nc(SCC(=O)NCc3ccc(F)cc3)ncc2S1(=O)=O	inactive	–
CCn1nnnc1SCC(=O)N1CCCc2ccccc21	inactive	–
CC(C)c1ccc2oc(=O)cc(CN3CCN(Cc4ccccc4)CC3)c2c1	inconclusive [inhibitor, partial curve]	–
CC(/C=C/C=C/c1ccccc1)=N\NC(=O)c1cccnc1	inconclusive [inhibitor, partial curve]	–
CC(CCc1ccco1)NC(=O)CSc1cc(=O)n(C)c2ccccc12 (stereo not drawn)	inconclusive [inhibitor, partial curve]	–
Cc1ccc(OCC(=O)NC2CCS(=O)(=O)C2)c(C)c1 (stereo not drawn)	inactive	–
COc1cc(/C=C/c2sc3ccccc3[n+]2CCCS(=O)(=O)[O-])ccc1O	inconclusive [inhibitor, partial curve]	–
COC(=O)c1ccc(NC(=S)N(Cc2cccnc2)Cc2ccco2)cc1	inconclusive [inhibitor, partial curve]	–
COc1ccc(OC)c(C(=O)CC2OC(=O)c3ccccc32)c1 (stereo not drawn)	inconclusive [inhibitor, partial curve, poor fit]	–
